Experimental findings from patent US20230027238A1 (SPECTRUM PHARMACEUTICALS, published 2023) are described below.

This assay has as its target T1, Chinese hamster ovary (CHO) cell-derived soluble recombinant human G-CSF receptor (human, UniProt Q99062 25-627).
T1 construct: extracellular domain; Immobilised by amine coupling on the sensor chip; also called soluble human G-CSF receptor; R&D Systems 381-050/CF
T1 sequence (looked up): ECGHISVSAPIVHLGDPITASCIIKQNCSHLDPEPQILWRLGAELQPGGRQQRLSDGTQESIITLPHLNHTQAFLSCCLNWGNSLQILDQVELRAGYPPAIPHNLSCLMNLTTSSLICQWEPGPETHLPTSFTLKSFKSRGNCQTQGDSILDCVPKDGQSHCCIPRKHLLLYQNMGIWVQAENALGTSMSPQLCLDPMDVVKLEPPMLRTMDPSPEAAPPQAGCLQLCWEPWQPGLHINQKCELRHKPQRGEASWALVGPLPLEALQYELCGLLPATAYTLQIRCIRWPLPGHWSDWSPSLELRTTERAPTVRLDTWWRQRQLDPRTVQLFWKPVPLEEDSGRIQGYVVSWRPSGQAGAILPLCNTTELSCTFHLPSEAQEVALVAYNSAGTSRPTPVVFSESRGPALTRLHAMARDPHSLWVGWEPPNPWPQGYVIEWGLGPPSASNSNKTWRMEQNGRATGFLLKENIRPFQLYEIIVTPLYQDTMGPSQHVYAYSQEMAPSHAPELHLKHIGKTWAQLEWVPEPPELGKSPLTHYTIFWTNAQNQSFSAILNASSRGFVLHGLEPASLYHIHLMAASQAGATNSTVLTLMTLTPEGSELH
Put plainly: SPR (BIAcore 3000), receptor amine-coupled to the chip, analyte 5.5-88 nmol/L, 25 °C, 1:1 Langmuir fit.

B1: eflapegrastim (17,65Ser-G-CSF-PEG-Fc protein complex) (Fc fusion)
chain 1: TPLGPASSLPQSFLLKSLEQVRKIQGDGAALQEKLCATYKLCHPEELVLLGHSLGIPWAPLSSCSSQALQLAGCLSQLHSGLFLYQGLLQALEGISPELGPTLDTLQLDVADFATTIWQQMEELGMAPALQPTQGAMPAFASAFQRRAGGVLVASHLQSFLEVSYRVLRHLAQP
chain 2: [in this place human IgG4 Fc]
modifications: N-terminus of only one of the two Fc chains linked to the other end of the PEG; aglycosylated (made in E. coli); amino group of the N-terminus linked to one end of a 3.4 kDa polyethylene glycol (PEG dialdehyde)
notes: also called 17,65S-G-CSF-PEG-Fc; 17,65SG-CSF-PEG-Fc
Consider B1, for which the Kd stood at 3.6 nM.

A word on the Kd: it is the equilibrium constant for the complex coming apart.
